What all share (conditions): 20 mM HEPES pH 7.9, 100 mM NaCl, 1 mM DTT, 0.2 mg/mL BSA, 0.02% Triton X-100, 2% milk, 0.4 mg/mL salmon testes DNA; 1 h; temperature not stated; high values mean tight binding; double strand, one strand shown; sequences stand for … in GCCTAGCAC…GTGCTAGGTCTTGATTCGCTTGACGCTGCTG
One assay addresses PU.1 (IVT) (UniProt P17947). Description: protein-binding microarray (PBM).
Assay [1] concerns the target PU.1 (endogenous, THP-1 nuclear extract) (UniProt P17947). Description: nuclear extract protein-binding microarray (nextPBM).
Assay [2] has as its target T1, FLI1 (endogenous, THP-1 nuclear extract) (UniProt Q01543).
T1 sequence: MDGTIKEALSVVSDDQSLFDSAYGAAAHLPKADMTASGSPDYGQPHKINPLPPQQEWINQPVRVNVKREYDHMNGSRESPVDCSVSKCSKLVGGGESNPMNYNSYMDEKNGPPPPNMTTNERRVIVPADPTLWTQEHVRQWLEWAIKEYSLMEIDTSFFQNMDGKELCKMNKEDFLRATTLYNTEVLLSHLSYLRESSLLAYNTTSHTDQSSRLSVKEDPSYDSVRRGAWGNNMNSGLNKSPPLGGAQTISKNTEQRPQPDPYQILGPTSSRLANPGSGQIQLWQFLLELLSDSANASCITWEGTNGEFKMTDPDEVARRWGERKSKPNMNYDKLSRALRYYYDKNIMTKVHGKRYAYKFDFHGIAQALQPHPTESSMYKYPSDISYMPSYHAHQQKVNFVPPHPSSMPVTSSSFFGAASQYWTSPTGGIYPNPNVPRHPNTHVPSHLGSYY
Described as above.

The results in this text go back to article PMC6451091.

The list shows a part of the results. For part of these data: At the low end of the ranking the order means little. For part of these data: Measured with an extract: partners may take part in the binding.

Regarding GATAAGAGGAAGTCCTCTGG, the binding signal amounted to 5.89 z-score in the assay with PU.1 (IVT), 6.47 z-score in assay [1] and 2.8 z-score in assay [2].

Consider GAAAACAGGGAGTCCCATAG, for which the binding signal with PU.1 (IVT) is -0.561 z-score; in assay [1], -0.45 z-score; in assay [2] it was 0.127 z-score.

Take GAAAAGAGGAAATGAAATTG: the binding signal with PU.1 (IVT) was 6.51 z-score; in assay [1], 6.43 z-score; in assay [2] it was 3.31 z-score.

Take CAAAAGAGGAACTGCTTTTT: the binding signal with PU.1 (IVT) came out at 7.49 z-score; in assay [1], 7.3 z-score; in assay [2], 2.58 z-score.

As for CTTATGGGGAAGTGCTCTAT, the binding signal with PU.1 (IVT) turned out to be 5.17 z-score; in assay [1], 5.22 z-score; in assay [2], 1.79 z-score.

For the sequence GAAATGGGGAAGTGCTTCAA, the binding signal with PU.1 (IVT) is 7.41 z-score; in assay [1] it was 7.12 z-score; in assay [2], 2.77 z-score.

As for AAAAAGGGGAAGTCAAATTG, the binding signal stood at 8.09 z-score with PU.1 (IVT), 7.53 z-score in assay [1] and 3.52 z-score in assay [2].

For AAAAAGAGGAAATGATTTAC, the binding signal was found to be 6.97 z-score in the assay with PU.1 (IVT), 6.75 z-score in assay [1] and 3.37 z-score in assay [2].

Consider AGAATGAGGAAATGGACATT, for which the binding signal with PU.1 (IVT) amounted to 4.43 z-score; in assay [1], 4.67 z-score; in assay [2], 2.29 z-score.

In the case of GAAAACAGGAAGTCTAAAGG, the binding signal in the assay with PU.1 (IVT) stood at 7.3 z-score; in assay [1] it was 6.63 z-score; in assay [2], 4.54 z-score.

In the case of CAGCAGAGGAAGTGAAAAGC, the binding signal worked out at 2.56 z-score with PU.1 (IVT), 2.95 z-score in assay [1] and 2.31 z-score in assay [2].

Consider GAAAAGGAGAACTGCATCTT, for which the results for the binding signal (with PU.1 (IVT); in assay [1]; in assay [2]) were 3.49 z-score, 3.44 z-score and 0.625 z-score, respectively.

CAGAGGAGGAAGTGGATTGA: the binding signal with PU.1 (IVT) worked out at 4.61 z-score; in assay [1], 4.95 z-score; in assay [2], 3.01 z-score.

Take TAAGAAAGGAAGTGAGAAAG: the binding signal with PU.1 (IVT) was 2.32 z-score; in assay [1], 1.87 z-score; in assay [2] it was 2.01 z-score.

For the sequence CTGCCAGGGAAGTACTGTGA, the binding signal with PU.1 (IVT) is 1.1 z-score; in assay [1] it was 1.28 z-score; in assay [2], 0.0985 z-score.

GAAAAGGGGAAGTCAATCAG: the binding signal is 7.69 z-score with PU.1 (IVT), 7.37 z-score in assay [1] and 3.15 z-score in assay [2].

In the case of GAAAACAGGAAGTTCCATAG, the binding signal with PU.1 (IVT) was found to be 7.66 z-score; in assay [1], 7.3 z-score; in assay [2] it was 5.09 z-score.

As to GAAAAGGGGAAGTGGGCTCA, the figures for the binding signal (in the assay with PU.1 (IVT); in assay [1]; in assay [2]) were 7.7 z-score, 7.32 z-score and 4.3 z-score, respectively.

AAAAAAAGGAACTGCCTAGA: the binding signal came to 4.37 z-score in the assay with PU.1 (IVT), 4.14 z-score in assay [1] and 1.42 z-score in assay [2].

For GGAATGAGGAAGTGGTCATG, the binding signal in the assay with PU.1 (IVT) worked out at 7.26 z-score; in assay [1] it was 6.96 z-score; in assay [2] it was 3.41 z-score.

On to CGAAAGGGGAAATGCTAAAC, for which the binding signal with PU.1 (IVT) came out at 3.64 z-score; in assay [1] it was 3.59 z-score; in assay [2], 1.96 z-score.

Take GAAATGAGGAAATGCTGAAG: the binding signal with PU.1 (IVT) turned out to be 4.47 z-score; in assay [1] it was 4.97 z-score; in assay [2] it was 1.84 z-score.

As to CGAAAAGGGAAGTCAGAGGC, the results for the binding signal (with PU.1 (IVT); in assay [1]; in assay [2]) were 5.26 z-score, 5.84 z-score and 2.24 z-score, respectively.

On to TGAATGGGGAAGTCTTCTAA, for which the binding signal with PU.1 (IVT) is 4.72 z-score; in assay [1], 5.12 z-score; in assay [2], 1.77 z-score.

Turning to TGATAGAGGAAGTGCAACCA, the binding signal in the assay with PU.1 (IVT) amounted to 4.92 z-score; in assay [1] it was 5.94 z-score; in assay [2], 2.88 z-score.

Consider AAAAAAAGGAAGTGGTAAAT, for which the results for the binding signal (in the assay with PU.1 (IVT); in assay [1]; in assay [2]) were 6.55 z-score, 6.54 z-score and 3.12 z-score, respectively.

Consider ACAATAAGGAAGTGTCTGCC, for which the binding signal with PU.1 (IVT) amounted to 4.42 z-score; in assay [1] it was 4.26 z-score; in assay [2], 2 z-score.

As to GGAGAGAGGAAGTAACAAGT, the binding signal with PU.1 (IVT) turned out to be 4.91 z-score; in assay [1], 5.26 z-score; in assay [2] it was 2.69 z-score.

As for GACAAGAGGAAGTCCTCTGT, the values for the binding signal (in the assay with PU.1 (IVT); in assay [1]; in assay [2]) were 4.55 z-score, 5.02 z-score and 2.63 z-score, respectively.

With GAAAACAGGAAGTCCCCTAG, the binding signal is 7.57 z-score with PU.1 (IVT), 7.19 z-score in assay [1] and 4.94 z-score in assay [2].

As for GTTGTGAGGAAGTGAAGTTA, the values for the binding signal (with PU.1 (IVT); in assay [1]; in assay [2]) were 3.85 z-score, 3.46 z-score and 1.97 z-score, respectively.

For CAAGAAAGGAAGTGATGTGA, the binding signal with PU.1 (IVT) was found to be 2.64 z-score; in assay [1] it was 2.42 z-score; in assay [2], 2.54 z-score.

Take CGAAAGGGGAAGAGCTAAAC: the figures for the binding signal (in the assay with PU.1 (IVT); in assay [1]; in assay [2]) were 3.34 z-score, 3.37 z-score and 1.29 z-score, respectively.

Turning to TAAAGGAGGAAGTTGCCCTG, the binding signal turned out to be 6.11 z-score with PU.1 (IVT), 6.43 z-score in assay [1] and 2.93 z-score in assay [2].

With CCAAGGAGGAAGTAGAGAGA, the binding signal was 5.18 z-score in the assay with PU.1 (IVT), 5.51 z-score in assay [1] and 2.63 z-score in assay [2].

Consider CAAAAAAGGAAGTGGATGCT, for which the figures for the binding signal (with PU.1 (IVT); in assay [1]; in assay [2]) were 5.93 z-score, 5.79 z-score and 2.88 z-score, respectively.

With GCTAAAGGGAAGTGAGTCAG, the results for the binding signal (with PU.1 (IVT); in assay [1]; in assay [2]) were 3.79 z-score, 3.76 z-score and 2 z-score, respectively.

As to AAAAAACGGAACTGGCTAGA, the binding signal in the assay with PU.1 (IVT) came out at 4.94 z-score; in assay [1] it was 5.12 z-score; in assay [2], 2.14 z-score.

For AAAAAGAGGAAATGAATTGG, the binding signal with PU.1 (IVT) was 6.98 z-score; in assay [1], 6.62 z-score; in assay [2], 3.49 z-score.

As to AAATAGGGGAAGTGTGTACA, the binding signal was 6.09 z-score with PU.1 (IVT), 6.44 z-score in assay [1] and 2.87 z-score in assay [2].

For CAAAAGAGGAAGTCGCATTA, the binding signal with PU.1 (IVT) was found to be 7.81 z-score; in assay [1], 7.21 z-score; in assay [2], 3.71 z-score.

On to TAAATGAGGAAGTGAAGGCT, for which the binding signal with PU.1 (IVT) is 7.65 z-score; in assay [1] it was 7.04 z-score; in assay [2] it was 3.48 z-score.

Turning to CAACAGAGGAAGTGGGACAT, the binding signal with PU.1 (IVT) is 3.15 z-score; in assay [1] it was 3.3 z-score; in assay [2] it was 2.69 z-score.

Regarding CAGAAGAGGAAGTGCTAACT, the values for the binding signal (with PU.1 (IVT); in assay [1]; in assay [2]) were 6.68 z-score, 6.78 z-score and 3.68 z-score, respectively.

For CGAAAGGGGAAGTGGTAAAC, the binding signal is 7.44 z-score in the assay with PU.1 (IVT), 7.03 z-score in assay [1] and 3.42 z-score in assay [2].

As to TTACACAGGAAGTGCTGGCA, the binding signal was found to be 2.14 z-score with PU.1 (IVT), 2.41 z-score in assay [1] and 4.35 z-score in assay [2].

With AAAAAGAGGAAGTGATGATG, the binding signal in the assay with PU.1 (IVT) came to 9.07 z-score; in assay [1] it was 7.66 z-score; in assay [2] it was 5 z-score.

Turning to CAAACGAGGAACTGATGCGG, the binding signal in the assay with PU.1 (IVT) came to 2.12 z-score; in assay [1] it was 2.43 z-score; in assay [2], 0.546 z-score.

ACAATAAGGAAGTGATACTA: the binding signal came out at 4.77 z-score in the assay with PU.1 (IVT), 5.7 z-score in assay [1] and 2.65 z-score in assay [2].

CAAAAGGGGAACTGCTTGGG: the binding signal with PU.1 (IVT) amounted to 5.91 z-score; in assay [1] it was 6.32 z-score; in assay [2] it was 2.18 z-score.

With GCTTTAGGGAAGTGGGGCAG, the binding signal with PU.1 (IVT) was 4.16 z-score; in assay [1], 4.76 z-score; in assay [2] it was 1.39 z-score.

Consider GAAAAGAGGAAGTCAAATTT, for which the binding signal with PU.1 (IVT) was 8.44 z-score; in assay [1], 7.43 z-score; in assay [2], 4.66 z-score.

As for AGAAACAGGAACTGAGGCCA, the binding signal with PU.1 (IVT) turned out to be 4.78 z-score; in assay [1], 5.67 z-score; in assay [2] it was 2.56 z-score.

For the sequence TAAATGAGGAAATGACCACG, the binding signal came out at 4.43 z-score in the assay with PU.1 (IVT), 4.81 z-score in assay [1] and 2.14 z-score in assay [2].

For AGAGAGAGGAAGTGAGCTCT, the binding signal is 4.31 z-score with PU.1 (IVT), 5.05 z-score in assay [1] and 3 z-score in assay [2].

Turning to AAAATGAGGAAGTAGAGGGA, the results for the binding signal (in the assay with PU.1 (IVT); in assay [1]; in assay [2]) were 7.96 z-score, 7.16 z-score and 3.49 z-score, respectively.

Consider GGAAAGAGGAAGTCAAGTCC, for which the figures for the binding signal (with PU.1 (IVT); in assay [1]; in assay [2]) were 7.77 z-score, 7.25 z-score and 3.69 z-score, respectively.

Turning to GAAACCAGGAAGTCCCATAG, the figures for the binding signal (with PU.1 (IVT); in assay [1]; in assay [2]) were 3.78 z-score, 4.21 z-score and 2.56 z-score, respectively.

CAAGGGAGGAAGTGGAAAAA: the values for the binding signal (in the assay with PU.1 (IVT); in assay [1]; in assay [2]) were 3.39 z-score, 3.38 z-score and 2.94 z-score, respectively.

Regarding AGAAGGAGGAAGTGGGGAGC, the binding signal came to 5.26 z-score with PU.1 (IVT), 5.88 z-score in assay [1] and 2.78 z-score in assay [2].
